Source: ChEMBL document CHEMBL5724801, “EUbOPEN Chemogenomics Library - Multiplex” (2024)
Certain results were filed several times, with different values. The other results are left out here. There may be further records. The values listed for one entry are repeats in other runs, samples, wells, individuals or studies. Non-standard residues stand in square brackets, D forms with d. Residues, ends and D or L forms follow the SMILES beside them.

Key:
Type in all cases: toxicity, cell-based
Fibroblast = test: Multiplex assay against human fibroblast
Method in brief: (§1)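 Compound was added to live cells that had been stained at seeding with Hoechst33342, BioTracker Green Microtubule Cytoskeleton Dye, MitoTracker Red and Annexin V Alexa Fluor 680, and imaging followed on a CQ1 microscope at 37°C and 5% CO2. CellPathfinder machine-learning gating divided cells into Hoechst high-intensity objects or normal cells, normal cells into healthy, pyknosed or fragmented nuclei, and pyknosed cells into mitotic or apoptotic. Tubulin, mitochondrial-mass and membrane-permeability phenotypes are per cents of healthy-nucleus cells.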

U2OS = test: Multiplex assay against U2OS; settings: human; method in brief: as §1
HEK-293T = test: Multiplex assay against HEK293T; settings: human; method in brief: as §1
[1] = 48 h, 1 µM, compound concentration 1 uM
[2] = 12 h, 1 µM, compound concentration 1 uM
[3] = 24 h, 1 µM, compound concentration 1 uM
[4] = 24 h, 10 µM, compound concentration 10 uM
[5] = 12 h, 10 µM, compound concentration 10 uM
[6] = 48 h, 10 µM, compound concentration 10 uM

`CCNC1(C(N)=O)CCN(c2ncnc3c2nc(-c2ccccc2Cl)n3-c2ccc(Cl)cc2)CC1` [OTENABANT] was tested. Which “Population Mitochondria Different-Phenotype (%)” value (Fibroblast; [1]) did it give?
The value was 3% and 18%.

And the “Population Mitochondria Different-Phenotype (%)” value (U2OS; [2])?
Its value is 7% and 22%.

What about the “Population Mitotic Cells (%)” value (U2OS; [1]) of the same molecule?
Its value is 13% and 47%.

And the “Total Cell Count” value (U2OS; [1])?
The value was 416 and 137.

Which “Population Membrane Permeable-Phenotype (%)” value (Fibroblast; [3]) does the source give for `C[C@H]1[C@H]2CC[C@H]3[C@@H]4CC=C5C[C@@H](N(C)C)CC[C@]5(C)[C@H]4CC[C@]23CN1C` [CONESSINE] here?
Its value is 1% and 13%.

What about the “Population Pyknosed Nuclei (%)” value (Fibroblast; [4]) of the same molecule?
Its value is 9% and 32%.

And the “Population Mitotic Cells (%)” value (U2OS; [5])?
The value was 45% and 0%.

What about the “Population Mitotic Cells (%)” value (U2OS; [4]) of the same molecule?
The value was 35% and 0%.

`COCCNc1cc(NC(=O)N2CCCc3cc(CN4CCOCC4=O)c(C=O)nc32)ncc1C#N` was tested. Which “Population Apoptotic (%)” value (Fibroblast; [2]) did it give?
The value was 7.69% and 23.68%.

And the “Population Apoptotic (%)” value (Fibroblast; [3])?
The value was 5% and 21.43%.

What about the “Population Mitochondria Different-Phenotype (%)” value (Fibroblast; [6]) of the same molecule?
The value was 20.69% and 4.52%.

And the “Population Healthy Nuclei (%)” value (HEK-293T; [2])?
The value was 59.46% and 18%.

What about the “Population Tubulin-Different-Phenotype (%)” value (HEK-293T; [2]) of the same molecule?
The value was 8.18% and 33.33%.

And the “Population Healthy Nuclei (%)” value (HEK-293T; [5])?
Its value is 51.07% and 15.33%.

What about the “Population Healthy Nuclei (%)” value (HEK-293T; [3]) of the same molecule?
The value was 71.48% and 19.08%.

And the “Population Tubulin-Different-Phenotype (%)” value (HEK-293T; [3])?
The value was 17.55% and 3.03%.

What about the “Total Cell Count” value (HEK-293T; [3]) of the same molecule?
The value was 526 and 173.

And the “Population Pyknosed Nuclei (%)” value (HEK-293T; [1])?
The value was 11.73% and 37.98%.

What about the “Population Tubulin-Different-Phenotype (%)” value (HEK-293T; [1]) of the same molecule?
Its value is 2.87% and 54.03%.

What about the “Total Cell Count” value (HEK-293T; [1]) of the same molecule?
Its value is 1304 and 208.

What about the “Population Tubulin-Different-Phenotype (%)” value (HEK-293T; [6]) of the same molecule?
Its value is 3.64% and 50.4%.

And the “Total Cell Count” value (HEK-293T; [6])?
The value was 774 and 233.

And the “Total Cell Count” value (U2OS; [6])?
Its value is 830 and 237.

For `N#Cc1c(N)nc(SCc2csc(-c3ccc(Cl)cc3)n2)c(C#N)c1-c1ccc(OCCO)cc1` [CAPADENOSON], which “Population Fragmented Nuclei (%)” value (Fibroblast; [2]) is on record?
The value was 8% and 30%.

What about the “Population Fragmented Nuclei (%)” value (Fibroblast; [3]) of the same molecule?
Its value is 11% and 35%.

What about the “Population Mitochondria Different-Phenotype (%)” value (Fibroblast; [3]) of the same molecule?
The value was 5% and 20%.

What about the “Population Mitotic Cells (%)” value (Fibroblast; [6]) of the same molecule?
The value was 18% and 63%.

And the “Population Mitotic Cells (%)” value (U2OS; [3])?
The value was 12% and 38%.

Which results are given for `CC(C)COc1ccc(CNC(=O)N(Cc2ccc(F)cc2)C2CCN(C)CC2)cc1` [PIMAVANSERIN]?
Population Mitotic Cells (%) (Fibroblast; [1]): 11% and 47%; Population Mitotic Cells (%) (Fibroblast; [6]): 8% and 25%

For `Cl.c1ccc2c(c1)CCC[C@H]2Nc1nc2ccccc2[nH]1`, which “Population Healthy Nuclei (%)” value (HEK-293T; [2]) is on record?
The value was 54.46% and 14.47%.

What about the “Population Mitochondria Different-Phenotype (%)” value (HEK-293T; [2]) of the same molecule?
Its value is 36.26% and 8.7%.

And the “Population Tubulin-Different-Phenotype (%)” value (HEK-293T; [2])?
Its value is 2.34% and 21.74%.

And the “Population Healthy Nuclei (%)” value (HEK-293T; [5])?
The value was 49.86% and 10.14%.

And the “Population Mitochondria Different-Phenotype (%)” value (HEK-293T; [5])?
Its value is 28.57% and 7.14%.

And the “Population Tubulin-Different-Phenotype (%)” value (HEK-293T; [5])?
Its value is 6.29% and 28.57%.

And the “Population Mitochondria Different-Phenotype (%)” value (HEK-293T; [3])?
Its value is 14.7% and 4.08%.

And the “Population Healthy Nuclei (%)” value (HEK-293T; [4])?
Its value is 66.53% and 18.99%.

And the “Total Cell Count” value (HEK-293T; [4])?
Its value is 505 and 158.

What about the “Population Tubulin-Different-Phenotype (%)” value (HEK-293T; [1]) of the same molecule?
Its value is 2.59% and 30.82%.

What about the “Total Cell Count” value (HEK-293T; [1]) of the same molecule?
Its value is 1007 and 229.

And the “Population Apoptotic (%)” value (HEK-293T; [6])?
The value was 5.65% and 21.62%.

And the “Population Tubulin-Different-Phenotype (%)” value (HEK-293T; [6])?
The value was 3.73% and 56.44%.

What about the “Total Cell Count” value (HEK-293T; [6]) of the same molecule?
Its value is 950 and 182.

And the “Population Mitochondria Different-Phenotype (%)” value (U2OS; [5])?
The value was 0.56% and 16.11%.

Which results are given for `CC[C@H]1OC(=O)[C@H](C)[C@@H](O[C@H]2C[C@@](C)(OC)[C@@H](O)[C@H](C)O2)[C@H](C)[C@@H](O[C@@H]2O[C@H](C)C[C@H](N(C)C)[C@H]2O)[C@@]2(C)CC(C)=C(O2)[C@H](C)[C@@H](O)[C@]1(C)O`?
Population Mitochondria Different-Phenotype (%) (Fibroblast; [4]): 37% and 12%; Population Mitochondria Different-Phenotype (%) (Fibroblast; [6]): 40% and 8%; Population Mitotic Cells (%) (U2OS; [2]): 50% and 15%

Which “Population Membrane Permeable-Phenotype (%)” value (U2OS; [1]) does the source give for `O=c1ccc2ccc(OCCCCN3CCN(c4cccc5sccc45)CC3)cc2[nH]1` [BREXPIPRAZOLE] here?
Its value is 9% and 34%.

What does the source list for `COc1ccccc1N1CCN(C[C@@H](C(=O)NC(C)(C)C)c2ccccc2)CC1.Cl.Cl`?
Population Mitochondria Different-Phenotype (%) (Fibroblast; [3]): 15% and 3%; Population Mitochondria Different-Phenotype (%) (Fibroblast; [4]): 37% and 8%; Population Mitotic Cells (%) (Fibroblast; [4]): 16% and 59%; Population Hoechst High Intensity Objects (%) (Fibroblast; [6]): 14% and 3%; Population Mitochondria Different-Phenotype (%) (Fibroblast; [6]): 34% and 8%; Population Mitotic Cells (%) (Fibroblast; [6]): 15% and 55%; Population Mitotic Cells (%) (U2OS; [6]): 41% and 4%

Which results are given for `CCCOc1ccc2[nH]cc(C3=CCNCC3)c2n1.Cl`?
Population Mitotic Cells (%) (U2OS; [5]): 13% and 40%; Population Mitotic Cells (%) (U2OS; [3]): 29% and 9%; Population Mitotic Cells (%) (U2OS; [4]): 7% and 27%; Population Mitotic Cells (%) (U2OS; [1]): 8% and 25%

Which results are given for `COc1cc(C(=O)N(CCCc2ccccc2)Cc2ccc(CC(=O)O)cc2)cc(OC)c1C`?
Population Fragmented Nuclei (%) (Fibroblast; [3]): 11% and 44%; Population Mitotic Cells (%) (Fibroblast; [1]): 10% and 47%; Population Mitotic Cells (%) (U2OS; [2]): 4% and 30%

`CC(C)C[C@@H]1NC(=O)[C@@H](C(C)C)NC(=O)[C@@H]2CCCN2C(=O)[C@@H](CC(=O)O)NC(=O)[C@@H](Cc2c[nH]c3ccccc23)NC1=O` [BQ-123] (cyclo(L[dW][dD]P[dV])) was tested. Which “Population Mitotic Cells (%)” value (U2OS; [6]) did it give?
The value was 5% and 18%.

And the “Total Cell Count” value (U2OS; [6])?
Its value is 435 and 131.

With `Cc1onc(-c2ccccc2Cl)c1C(=O)N(C)c1ccc(Cl)cc1` as the molecule, how does the “Population Tubulin-Different-Phenotype (%)” value (Fibroblast; [3]) read?
The value was 16% and 56%.

What about the “Population Pyknosed Nuclei (%)” value (Fibroblast; [4]) of the same molecule?
The value was 7% and 23%.

How did the “Population Mitochondria Different-Phenotype (%)” value (Fibroblast; [1]) turn out when `COc1ccc(Cl)cc1[C@]1(F)C(=O)Nc2cc(C(F)(F)F)ccc21` [FLINDOKALNER] was run?
The value was 14.29% and 2.49%.

And the “Population Fragmented Nuclei (%)” value (Fibroblast; [6])?
The value was 15.93% and 3.4%.

What about the “Population Healthy Nuclei (%)” value (HEK-293T; [2]) of the same molecule?
The value was 58.22% and 13.55%.

And the “Population Tubulin-Different-Phenotype (%)” value (HEK-293T; [2])?
Its value is 4.52% and 28.57%.

What about the “Population Healthy Nuclei (%)” value (HEK-293T; [5]) of the same molecule?
The value was 56.71% and 14.18%.

What about the “Population Tubulin-Different-Phenotype (%)” value (HEK-293T; [5]) of the same molecule?
Its value is 7.73% and 47.37%.

What about the “Population Healthy Nuclei (%)” value (HEK-293T; [3]) of the same molecule?
Its value is 71.63% and 17.28%.

What about the “Total Cell Count” value (HEK-293T; [3]) of the same molecule?
The value was 497 and 162.

And the “Population Tubulin-Different-Phenotype (%)” value (HEK-293T; [4])?
The value was 25.57% and 4.88%.

And the “Total Cell Count” value (HEK-293T; [4])?
Its value is 507 and 160.

What about the “Population Apoptotic (%)” value (HEK-293T; [1]) of the same molecule?
Its value is 4% and 27.59%.

And the “Population Pyknosed Nuclei (%)” value (HEK-293T; [1])?
The value was 12.72% and 42.44%.

What about the “Population Tubulin-Different-Phenotype (%)” value (HEK-293T; [1]) of the same molecule?
Its value is 1.3% and 37.5%.

What about the “Total Cell Count” value (HEK-293T; [1]) of the same molecule?
Its value is 1179 and 205.

What about the “Population Tubulin-Different-Phenotype (%)” value (HEK-293T; [6]) of the same molecule?
Its value is 0.77% and 43.09%.

What about the “Total Cell Count” value (HEK-293T; [6]) of the same molecule?
Its value is 1050 and 194.

Which “Population Fragmented Nuclei (%)” value (U2OS; [2]) does the source give for `Cc1ccc(F)cc1C(=O)Nc1ccc(C(=O)N2Cc3cccn3Cc3ccccc32)c(Cl)c1` [LIXIVAPTAN] here?
Its value is 32% and 8%.

And the “Population Mitotic Cells (%)” value (U2OS; [3])?
Its value is 13% and 42%.

What about the “Population Mitotic Cells (%)” value (U2OS; [6]) of the same molecule?
The value was 25% and 7%.
